Experimental data reported in ChEMBL document CHEMBL4888484, “Replenishing the malaria drug discovery pipeline: Screening and hit evaluation of the MMV Hit Generation Library 1 (HGL1) against asexual blood stage Plasmodium falciparum ,using a nano luciferase reporter read-out” (2022).
Hit rate of the full screen: of about 150,000 compounds, about 540 (0.36%) showed an effect of 50% or more. The list shows a part of the results.

Tested on: Plasmodium falciparum
Test: Primary screen in NF54 nanoGlo assay, in single point, at 2uM, 72h; a lower Z score goes with more inhibition
Assay type: functional, Erythrocyte
Conditions: timepoint 72 hour

Row | SMILES | % Inhibition [%] | Z score
1 | COc1ccc(CCC(=O)N2C[C@@H]3CN(C(C)C)C[C@]3(C(=O)N3CCCC3)C2)cc1 | -8 | 1.03
2 | COC(=O)CCN(CC(=O)NCc1cccnc1)CC(C)C | -16 | 2.09
3 | CN1N=C(C(=O)N2CCC[C@H](c3[nH]ncc3Cc3ccccc3)C2)CCC1=O | 3 | -0.53
4 | Cc1ccc(-c2cn3ccn(-c4ccc5c(c4)CCC5)c(=O)c3n2)cc1C | -3 | 0.45
5 | CC(CC1CCCO1)NC(C)c1ccco1 (stereo unspecified) | 13 | -1.61
6 | O=c1c(C(F)(F)F)cccn1Cc1ncccn1 | -9 | 1.69
7 | O=C1C[C@H](c2ccccc2)c2cnn(Cc3cccs3)c2N1 | -2 | 0.32
8 | COc1cccc(CN2CCC[C@@](O)(CN3CCCCC3)C2=O)c1OC | 2 | -0.36
9 | Cc1ncc([C@H](C)NCC(C)(C)CC2CCOCC2)s1 | -17 | 2.45
10 | CCc1ccc(C2CN3C(=O)N(Cc4ccccc4)C(=O)[C@]3(C)c3[nH]c4ccccc4c32)cc1 (stereo partly specified) | -3 | 0.42
11 | NC(=O)CN1C(=O)CCN(c2ccccc2)C1=O | -47 | 5.52
12 | Cc1ccc(C)c(CNc2cc(C(=O)N3CCc4ccccc4C3)cc(S(=O)(=O)N(C)C)c2)c1 | -18 | 2.13
13 | COc1ccccc1N1CCN(C2CCN(Cc3ccncc3)CC2)CC1 | 32 | -3.67
14 | Cc1ccc(NC(=O)Nc2cc(C)cc3c(-c4ccccc4)c(C(=O)NC[C@H]4CCCO4)[nH]c23)cc1 | 31 | -3.49
15 | CC(C)S(=O)(=O)N1CCC[C@H](CCc2nnc(C3CCOCC3)o2)C1 | -16 | 2.16
16 | C[C@H](NC(=O)OC(C)(C)C)c1nnco1 | 1 | -0.11
17 | CC(C)(C)OC(=O)Nc1ccc(F)c(NC(=O)[C@@H]2CCC(=O)N2)c1 | -5 | 0.73
18 | COCC1(C(=O)Nc2ccc3nscc3c2)CCOCC1 | 3 | -0.33
19 | CCCc1nnnn1C[C@H]1CCCN(S(C)(=O)=O)C1 | -12 | 1.59
20 | CNC(=O)Cc1nc(C2CC3CCC2C3)cs1 (stereo unspecified) | -4 | 0.61
21 | O=C(NS(=O)(=O)Cc1ccc2c(c1)COC2)C1CC12CCOC2 (stereo unspecified) | 5 | -0.76
22 | CCN(C(C)=O)c1nc2ccccc2n(CC(=O)Nc2cc(C(F)(F)F)ccc2Cl)c1=O | -9 | 1.4
23 | O=C(NC(=O)c1ccc(F)cc1F)Nc1nc(-c2ccccc2)cc(C(F)(F)F)n1 | -2 | 0.37
